# Measurements from the supplement of paper PMC8728848.
# The other results are listed elsewhere or left out.
# B1: Gal 3C (Homo sapiens), P17931 (protein)
# chain: YGAPAGPLIVPYNLPLPGGVVPRMLITILGTVKPNANRIALDFQRGNDVAFHFNPRFNENNRRVIVCNTKLDNNWGREERQSVFPFESGKPFKIQVLVEPDHFKVAVNDAHLLQYNHRVKKLNEISKLGISGDIDLTSASYTMI
# Legend:
# Assay in all cases: glycan array binding signal (z-score within array); higher = stronger binding
# Conditions in all cases: glycan notation: IUPAC condensed, linker removed
# [1] = biological target: Fuc(a1-2)Gal(b1-4)GlcNAc(b1-3)Gal(b1-4)GlcNAc(b1-2)Man(a1-3)[Fuc(a1-2)Gal(b1-4)GlcNAc(b1-3)Gal(b1-4)GlcNAc(b1-2)Man(a1-6)]Man(b1-4)GlcNAc(b1-4)GlcNAc
# Outline: (§1)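 Glycan array data came from 3228 arrays in the Consortium for Functional Glycomics database, and only arrays with an available protein sequence were kept. Glycan names were put into IUPAC-condensed notation, and columns mapping to the same glycan were averaged. The binding signal is a within-array Z-score, averaged across arrays of one protein sequence run at different concentrations or buffers and across linkers. A negative Z-score can be read as non-binding.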
# [2] = biological target: Fuc(a1-2)Gal(b1-4)GlcNAc(b1-3)Gal(b1-4)GlcNAc(b1-3)Gal(b1-4)GlcNAc
# Outline: as §1
# [3] = biological target: Fuc(a1-2)Gal(b1-4)GlcNAc(b1-3)GalNAc
# Outline: as §1
# [4] = biological target: Fuc(a1-2)Gal(b1-4)GlcNAc(b1-3)[Fuc(a1-2)Gal(b1-4)GlcNAc(b1-6)]GalNAc
# Outline: as §1
# [5] = biological target: Fuc(a1-2)Gal(b1-4)GlcNAc(b1-3)[Fuc(a1-3)[Gal(b1-4)]GlcNAc(b1-6)]Gal(b1-4)Glc
# Outline: as §1
# [6] = biological target: Fuc(a1-2)Gal(b1-4)GlcNAc(b1-6)GalNAc
# Outline: as §1
# [7] = biological target: Fuc(a1-2)Gal(b1-4)GlcNAc6S
# Outline: as §1
# [8] = biological target: Fuc(a1-2)Gal(b1-4)[Fuc(a1-3)]GlcNAc
# Outline: as §1
# [9] = biological target: Fuc(a1-2)Gal(b1-4)[Fuc(a1-3)]GlcNAc(b1-2)Man(a1-3)[Fuc(a1-2)Gal(b1-4)[Fuc(a1-3)]GlcNAc(b1-2)Man(a1-6)]Man(b1-4)GlcNAc(b1-4)[Fuc(a1-6)]GlcNAc
# Outline: as §1
# [10] = biological target: Fuc(a1-2)Gal(b1-4)[Fuc(a1-3)]GlcNAc(b1-2)[Fuc(a1-2)Gal(b1-4)[Fuc(a1-3)]GlcNAc(b1-4)]Man(a1-3)[Fuc(a1-2)Gal(b1-4)[Fuc(a1-3)]GlcNAc(b1-2)Man(a1-6)]Man(b1-4)GlcNAc(b1-4)GlcNAc
# Outline: as §1
# [11] = biological target: Fuc(a1-2)Gal(b1-4)[Fuc(a1-3)]GlcNAc(b1-3)Gal(b1-4)[Fuc(a1-3)]GlcNAc
# Outline: as §1
# [12] = biological target: Fuc(a1-2)Gal(b1-4)[Fuc(a1-3)]GlcNAc(b1-3)Gal(b1-4)[Fuc(a1-3)]GlcNAc(b1-3)Gal(b1-4)[Fuc(a1-3)]GlcNAc
# Outline: as §1
# [13] = biological target: Fuc(a1-2)Gal(b1-4)[Fuc(a1-3)]GlcNAc(b1-3)GalNAc
# Outline: as §1
# [14] = biological target: Fuc(a1-2)Gal(b1-4)[Fuc(a1-3)]GlcNAc(b1-3)[Neu5Ac(a2-6)Gal(b1-4)GlcNAc(b1-6)]Gal(b1-4)Glc
# Outline: as §1
# [15] = biological target: Fuc(a1-2)Gal3S(b1-4)GlcNAc
# Outline: as §1
# [16] = biological target: Fuc(a1-2)Gal6S(b1-3)GlcNAc
# Outline: as §1
# [17] = biological target: Fuc(a1-2)Gal6S(b1-3)GlcNAc6S
# Outline: as §1
# [18] = biological target: Fuc(a1-2)Gal6S(b1-4)Glc
# Outline: as §1
# [19] = biological target: Fuc(a1-2)Gal6S(b1-4)Glc6S
# Outline: as §1
# [20] = biological target: Fuc(a1-2)[Gal(a1-3)]Gal
# Outline: as §1
# [21] = biological target: Fuc(a1-2)[Gal(a1-3)]Gal(b1-3)GalNAc
# Outline: as §1
# [22] = biological target: Fuc(a1-2)[Gal(a1-3)]Gal(b1-3)GalNAc(b1-3)Gal(a1-4)Gal(b1-4)Glc
# Outline: as §1
# [23] = biological target: Fuc(a1-2)[Gal(a1-3)]Gal(b1-3)GlcNAc
# Outline: as §1
# [24] = biological target: Fuc(a1-2)[Gal(a1-3)]Gal(b1-3)GlcNAc(b1-2)Man(a1-3)[Fuc(a1-2)[Gal(a1-3)]Gal(b1-3)GlcNAc(b1-2)Man(a1-6)]Man(b1-4)GlcNAc(b1-4)GlcNAc
# Outline: as §1
# [25] = biological target: Fuc(a1-2)[Gal(a1-3)]Gal(b1-3)GlcNAc(b1-2)Man(a1-3)[Fuc(a1-2)[Gal(a1-3)]Gal(b1-3)GlcNAc(b1-2)Man(a1-6)]Man(b1-4)GlcNAc(b1-4)[Fuc(a1-6)]GlcNAc
# Outline: as §1
# [26] = biological target: Fuc(a1-2)[Gal(a1-3)]Gal(b1-3)GlcNAc(b1-3)GalNAc
# Outline: as §1
# [27] = biological target: Fuc(a1-2)[Gal(a1-3)]Gal(b1-3)GlcNAc(b1-6)GalNAc
# Outline: as §1
# [28] = biological target: Fuc(a1-2)[Gal(a1-3)]Gal(b1-4)Glc
# Outline: as §1
# [29] = biological target: Fuc(a1-2)[Gal(a1-3)]Gal(b1-4)GlcNAc
# Outline: as §1
# [30] = biological target: Fuc(a1-2)[Gal(a1-3)]Gal(b1-4)GlcNAc(b1-2)Man
# Outline: as §1
# [31] = biological target: Fuc(a1-2)[Gal(a1-3)]Gal(b1-4)GlcNAc(b1-2)Man(a1-3)[Fuc(a1-2)[Gal(a1-3)]Gal(b1-4)GlcNAc(b1-2)Man(a1-6)]Man(b1-4)GlcNAc(b1-4)GlcNAc
# Outline: as §1
# [32] = biological target: Fuc(a1-2)[Gal(a1-3)]Gal(b1-4)GlcNAc(b1-2)Man(a1-3)[Fuc(a1-2)[Gal(a1-3)]Gal(b1-4)GlcNAc(b1-2)Man(a1-6)]Man(b1-4)GlcNAc(b1-4)[Fuc(a1-6)]GlcNAc
# Outline: as §1
# [33] = biological target: Fuc(a1-2)[Gal(a1-3)]Gal(b1-4)GlcNAc(b1-3)GalNAc
# Outline: as §1
# [34] = biological target: Fuc(a1-2)[Gal(a1-3)]Gal(b1-4)GlcNAc(b1-3)[Fuc(a1-2)[Gal(a1-3)]Gal(b1-4)GlcNAc(b1-6)]GalNAc
# Outline: as §1
# [35] = biological target: Fuc(a1-2)[Gal(a1-3)]Gal(b1-4)GlcNAc(b1-6)GalNAc
# Outline: as §1
# [36] = biological target: Fuc(a1-2)[Gal(a1-3)]Gal(b1-4)[Fuc(a1-3)]Glc
# Outline: as §1
# [37] = biological target: Fuc(a1-2)[Gal(a1-3)]Gal(b1-4)[Fuc(a1-3)]GlcNAc
# Outline: as §1
# [38] = biological target: Fuc(a1-2)[Gal(a1-3)]Gal(b1-4)[Fuc(a1-3)]GlcNAc(b1-3)GalNAc
# Outline: as §1
# [39] = biological target: Fuc(a1-2)[Gal(a1-4)]Gal(b1-4)GlcNAc
# Outline: as §1
# [40] = biological target: Fuc(a1-2)[GalNAc(a1-3)]Gal
# Outline: as §1
# [41] = biological target: Fuc(a1-2)[GalNAc(a1-3)]Gal(b1-3)GalNAc(a1-3)[Fuc(a1-2)]Gal(b1-4)GlcNAc
# Outline: as §1
# [42] = biological target: Fuc(a1-2)[GalNAc(a1-3)]Gal(b1-3)GalNAc(b1-3)Gal(a1-4)Gal(b1-4)Glc
# Outline: as §1
# [43] = biological target: Fuc(a1-2)[GalNAc(a1-3)]Gal(b1-3)GlcNAc
# Outline: as §1
# [44] = biological target: Fuc(a1-2)[GalNAc(a1-3)]Gal(b1-3)GlcNAc(b1-2)Man(a1-3)[Fuc(a1-2)[GalNAc(a1-3)]Gal(b1-3)GlcNAc(b1-2)Man(a1-6)]Man(b1-4)GlcNAc(b1-4)GlcNAc
# Outline: as §1
# [45] = biological target: Fuc(a1-2)[GalNAc(a1-3)]Gal(b1-3)GlcNAc(b1-2)Man(a1-3)[Fuc(a1-2)[GalNAc(a1-3)]Gal(b1-3)GlcNAc(b1-2)Man(a1-6)]Man(b1-4)GlcNAc(b1-4)[Fuc(a1-6)]GlcNAc
# Outline: as §1
binder,measurement,setting,value
B1,glycan array binding signal (z-score),[1],1.68
same,glycan array binding signal (z-score),[2],2.05
same,glycan array binding signal (z-score),[3],-0.242
same,glycan array binding signal (z-score),[4],-0.342
same,glycan array binding signal (z-score),[5],-0.284
same,glycan array binding signal (z-score),[6],-0.295
same,glycan array binding signal (z-score),[7],-0.313
same,glycan array binding signal (z-score),[8],-0.318
same,glycan array binding signal (z-score),[9],-0.215
same,glycan array binding signal (z-score),[10],-0.232
same,glycan array binding signal (z-score),[11],-0.198
same,glycan array binding signal (z-score),[12],-0.175
same,glycan array binding signal (z-score),[13],-0.183
same,glycan array binding signal (z-score),[14],-0.296
same,glycan array binding signal (z-score),[15],-0.307
same,glycan array binding signal (z-score),[16],-0.329
same,glycan array binding signal (z-score),[17],-0.167
same,glycan array binding signal (z-score),[18],-0.193
same,glycan array binding signal (z-score),[19],-0.287
same,glycan array binding signal (z-score),[20],-0.224
same,glycan array binding signal (z-score),[21],-0.218
same,glycan array binding signal (z-score),[22],-0.305
same,glycan array binding signal (z-score),[23],0.604
same,glycan array binding signal (z-score),[24],0.151
same,glycan array binding signal (z-score),[25],-0.222
same,glycan array binding signal (z-score),[26],-0.161
same,glycan array binding signal (z-score),[27],-0.263
same,glycan array binding signal (z-score),[28],-0.106
same,glycan array binding signal (z-score),[29],2.41
same,glycan array binding signal (z-score),[30],0.736
same,glycan array binding signal (z-score),[31],2.72
same,glycan array binding signal (z-score),[32],0.582
same,glycan array binding signal (z-score),[33],0.723
same,glycan array binding signal (z-score),[34],1.16
same,glycan array binding signal (z-score),[35],-0.251
same,glycan array binding signal (z-score),[36],-0.321
same,glycan array binding signal (z-score),[37],-0.196
same,glycan array binding signal (z-score),[38],-0.257
same,glycan array binding signal (z-score),[39],-0.216
same,glycan array binding signal (z-score),[40],-0.28
same,glycan array binding signal (z-score),[41],-0.241
same,glycan array binding signal (z-score),[42],-0.334
same,glycan array binding signal (z-score),[43],-0.132
same,glycan array binding signal (z-score),[44],-0.236
same,glycan array binding signal (z-score),[45],-0.271
